PubChem BioAssay AID360 (National Center for Advancing Translational Sciences (NCATS), 2006)
Screen size: about 48,000 compounds; about 550 (1.1%) were called active. About 4% were inconclusive and are not listed. No stated cut-off is given here; in the data, active means potency below about 15 µM; inconclusive means mostly about 16 µM to 33 µM; inactive means weaker than that. This is one part of the list.
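Further: the screen sought inhibitors.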
Potency means the concentration at half of the fitted maximal effect.

Each compound was assayed against Lysosomal acid glucosylceramidase (Homo sapiens) (UniProt P04062) (assay: Glucocerebrosidase). Settings: purified enzyme, resorufin glucoside fluorescence (screen aimed at inhibitors), 20 min; series mostly up to 77 µM.
Sequence of UniProt P04062 (P04062 whole entry, looked up): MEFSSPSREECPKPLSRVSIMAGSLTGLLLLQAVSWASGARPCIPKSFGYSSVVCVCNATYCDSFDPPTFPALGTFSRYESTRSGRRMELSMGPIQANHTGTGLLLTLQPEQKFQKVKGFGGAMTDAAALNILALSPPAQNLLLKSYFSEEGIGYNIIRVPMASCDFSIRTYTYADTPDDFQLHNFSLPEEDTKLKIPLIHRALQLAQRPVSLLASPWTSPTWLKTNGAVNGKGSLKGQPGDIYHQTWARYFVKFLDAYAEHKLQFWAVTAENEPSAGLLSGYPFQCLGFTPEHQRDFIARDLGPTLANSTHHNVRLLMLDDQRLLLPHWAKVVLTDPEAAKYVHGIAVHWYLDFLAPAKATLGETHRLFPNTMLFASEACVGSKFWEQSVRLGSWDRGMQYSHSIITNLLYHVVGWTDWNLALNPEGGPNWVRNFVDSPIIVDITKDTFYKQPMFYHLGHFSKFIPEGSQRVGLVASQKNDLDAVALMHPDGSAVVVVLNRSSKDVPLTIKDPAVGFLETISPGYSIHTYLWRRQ
Summary of the method: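 Wild-type enzyme at 0.2 nM final in 50mM citric acid/KH2PO4, 10mM sodium taurocholate, 0.01% tween-20, pH 5.9, with resorufin beta-D-glucopyranoside at 30 uM final. Compounds titrated, 20 min at RT, red fluorescence read; AC50 from titration.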
In the case of `CCOC(=O)c1cc(CNC(=O)c2c(C)oc3c2CCCC3)c(C)o1`, the Potency is reported as inactive: > 76.9 µM.
In the case of `Cc1ccccc1NC(=O)CSc1nc(N)c(C#N)c(-c2cccs2)c1C#N`, the Potency is reported as inactive: > 76.9 µM.
`CCOC(=O)C(CO)(NC(C)=O)C(=O)OCC` was tested, and the Potency was inactive: > 76.9 µM.
`Cc1occc1-c1nnc(SCC(=O)Nc2ccccc2N2CCCCC2)n1C` was tested, and the Potency was inactive: > 76.9 µM.
In the case of `COc1ccc(-n2c(SCC(=O)N3CCCCC3C)nnc2-c2cccnc2)cc1` (centres undefined), the Potency is reported as inactive: > 76.9 µM.
In the case of `CCCCN1C(=O)C2C(C(=O)Nc3cccc(OC)c3)C3C=CC2(O3)C1C(=O)NC1CCCCC1C` (centres undefined), the Potency is reported as inactive: > 76.9 µM.
`COC(=O)C1C(O)=C(C=NC2CCCCC2)C(=O)CC1(C)C` (centres undefined) was tested, and the Potency was inactive: > 76.9 µM.
With `Cc1nc2ccc3nc(NC(=O)c4ccco4)sc3c2s1` the Potency was inactive: > 76.9 µM.
`Nc1c(S(=O)(=O)c2cccs2)c2nc3ccccc3nc2n1CC1CCCO1` (centres undefined) was tested, and the Potency was inactive: > 76.9 µM.
For `CCn1nnnc1SCC(=O)c1cc(OC)ccc1OC`, the Potency was inactive: > 76.9 µM.
For `O=C1C(=O)N(CCCN2CCOCC2)C(c2ccccn2)/C1=C(\O)c1ccc2c(c1)OCCO2` (centres undefined), the Potency was inactive: > 76.9 µM.
With `O=C(CCCc1nc2ccccc2s1)Nc1nccs1` the Potency was inactive: > 76.9 µM.
For `COCCCN1C(=O)c2ccccc2C1C(=O)NC1CCCCCC1` (centres undefined), the Potency was inactive: > 76.9 µM.
In the case of `Cc1oc(CSCC2CCCO2)cc1C(=O)O` (centres undefined), the Potency is reported as inactive: > 76.9 µM.
In the case of `COCCCNC(=O)c1ccc(N(C)S(C)(=O)=O)cc1`, the Potency is reported as inactive: > 76.9 µM.
With `Cc1cccc(CC2CC(=O)N(C3CCCCC3)C2=O)c1` (centres undefined) the Potency was inactive: > 76.9 µM.
`O=C(c1ccc2c(c1)N(Cc1ccccc1)C(=O)CS2)N1CCOCC1` was tested, and the Potency was inactive: > 76.9 µM.
For `CCN(CC)CCN1C(=O)c2oc3ccccc3c(=O)c2C1c1ccccc1` (centres undefined), the Potency was inactive: > 76.9 µM.
For `Cc1cc(NC(=O)CN2CCCC2c2nc3ccccc3s2)no1` (centres undefined), the Potency was inactive: > 76.9 µM.
In the case of `CCOC(=O)N1CCC(NC(=O)c2cc(C(=O)Nc3ccc(OC)c(OC)c3)ccc2CO)CC1`, the Potency is reported as inactive: > 76.9 µM.
`CCOc1cc(C2C(C(=O)OC(C)C)=C(C)N=C3SCCC(=O)N32)ccc1OC(C)=O` (centres undefined) was tested, and the Potency was active: 14.5 µM.
With `COCCNC(=O)CC(NS(=O)(=O)c1ccc(C)cc1)c1ccco1` (centres undefined) the Potency was inactive: > 76.9 µM.
With `C=CCNc1nc2ccccc2nc1NS(=O)(=O)c1cccs1` the Potency was inactive: > 76.9 µM.
For `Brc1cccc(-c2nnc3n2CCC3)c1`, the Potency was inactive: > 76.9 µM.
For `O=C(Nc1nnc(CC(=O)N2CCCC2)s1)c1cnccn1`, the Potency was inactive: > 76.9 µM.
With `Cc1cc(C(=O)CSc2n[nH]c(N)n2)c(C)n1-c1cccc(F)c1` the Potency was inactive: > 15.4 µM.
For `COc1ccc(N2CCN(C(=O)CN3C(=O)c4ccccc4S3(=O)=O)CC2)cc1`, the Potency was inactive: > 76.9 µM.
`CCCn1c(=NC(=O)c2ccco2)c(C(=O)OCC)cc2c(=O)n3ccccc3nc21` was tested, and the Potency was inactive: > 76.9 µM.
`CC(C)Sc1nc2c(c(=O)[nH]c(=O)n2C)n1Cc1ccc(Cl)cc1` was tested, and the Potency was inactive: > 76.9 µM.
For `CC(=O)c1cccc(NC(=O)c2cc(-c3ccc(C)cc3)on2)c1`, the Potency was inactive: > 76.9 µM.
For `COc1ccc(NC(=O)C(c2ccc(OC)cc2)N(C)C(=O)c2cnccn2)cc1` (centres undefined), the Potency was inactive: > 76.9 µM.
For `CCN(CC)C(=O)COc1ccc(-c2nnc(N3CCCCC3)c3ccccc23)cc1`, the Potency was inactive: > 76.9 µM.
`COc1ccc(NC(=O)C2CCN(c3cc(C)nc(-c4ccccc4)n3)CC2)cc1` was tested, and the Potency was active: 13.2 µM.
`COc1ccc(N(C(=O)c2cccc(OC)c2OC)C2C=CS(=O)(=O)C2)cc1` (centres undefined) was tested, and the Potency was “inactive”.
`Cc1ccc(/C(O)=C2\C(=O)C(=O)N(CC(C)O)C2c2ccc(N(C)C)cc2)cc1` (centres undefined) was tested, and the Potency was inactive: > 76.9 µM.
For `Cc1cc(N2CCN(c3cccc(C(F)(F)F)c3)CC2)n2ncnc2n1`, the Potency was inactive: > 76.9 µM.
`CCSc1ccccc1C(=O)Nc1cccnc1` was tested, and the Potency was inactive: > 76.9 µM.
`O=C(COc1cccc2cccnc12)Nc1nccs1` was tested, and the Potency was inactive: > 76.9 µM.
In the case of `O=C(CCC(=O)N1CCc2ccccc21)Nc1ccccc1`, the Potency is reported as inactive: > 76.9 µM.
In the case of `O=C(NCC(c1cccnc1)N1CCN(c2ccccc2)CC1)OCc1ccccc1` (centres undefined), the Potency is reported as inactive: > 76.9 µM.
In the case of `Cc1cc(C)c(S(=O)(=O)N2CCCCC2)c(C)c1-n1ncnn1`, the Potency is reported as inactive: > 76.9 µM.
For `CC1(C)CC(=O)C2=C(C1)OC(N)=C(C#N)C21CCC2(CC1)OCCO2`, the Potency was inactive: > 76.9 µM.
For `CC1=C(C(=O)OC(C)C)C(c2ccncc2)n2ncnc2N1` (centres undefined), the Potency was inactive: > 76.9 µM.
With `COc1ccc(N(CC(=O)NC2CCCCCC2)S(=O)(=O)c2c(C)nn(C)c2C)cc1` the Potency was inactive: > 76.9 µM.
With `CCCCC(c1nnnn1Cc1ccco1)N1CCN(c2nc3ccccc3s2)CC1` (centres undefined) the Potency was inactive: > 76.9 µM.
`CCOC(=O)N1CCN(C(=O)c2ccc3c(=O)n(-c4ccc(OC)cc4)c(=S)[nH]c3c2)CC1` was tested, and the Potency was inactive: > 76.9 µM.
With `Cc1nc(NCC2CCCO2)nc2c1C(=O)CC(C)(C)C2` (centres undefined) the Potency was inactive: > 76.9 µM.
`CCc1nnc(NC(=O)C2CCCN2S(=O)(=O)c2ccc(C)cc2)s1` (centres undefined) was tested, and the Potency was inactive: > 76.9 µM.
For `Cn1c(=O)[nH]c(=O)c2c1nc(Br)n2CCSc1nc2ccccc2o1`, the Potency was inactive: > 76.9 µM.
`COc1ccc(C(=O)N2CCN(C3CCC(c4ccccc4)CC3)CC2)cc1OC` (centres undefined) was tested, and the Potency was inactive: > 76.9 µM.
With `COc1ccc(CCn2c(NCc3ccco3)nc3c2c(=O)[nH]c(=O)n3C)cc1` the Potency was inactive: > 76.9 µM.
In the case of `N=C1C(c2nc3ccccc3c(=O)[nH]2)=C(O)CN1CCO`, the Potency is reported as inactive: > 76.9 µM.
`Cc1c(-c2ccccc2)nc(N)c(C#N)c1-c1ccco1` was tested, and the Potency was inactive: > 76.9 µM.
`COc1ccc(N2C(=O)CSC2c2ccc3c(c2)OCO3)c(OC)c1` (centres undefined) was tested, and the Potency was inactive: > 76.9 µM.
For `C=CCn1cnc2c(c1=O)c1nc3ccccc3nc1n2/N=C/c1cc(OC)c(OC)c(OC)c1`, the Potency was inactive: > 76.9 µM.
In the case of `Cc1cc2occ(CC(=O)O)c2cc1C`, the Potency is reported as inactive: > 76.9 µM.
In the case of `CCN(CC)S(=O)(=O)c1ccc2oc(C(=O)NC(C)C)c(C)c2c1`, the Potency is reported as inactive: > 76.9 µM.
For `COc1ccc(NC(=O)CN(c2ccc(C)cc2)S(=O)(=O)c2c(C)nn(C)c2C)cc1OC`, the Potency was inactive: > 76.9 µM.
`O=C(O)CCN1C(=O)C2C3C=CC(C3)C2C1=O` (centres undefined) was tested, and the Potency was inactive: > 76.9 µM.
For `CC(C)C(NC(=O)C1CCCCC1)C(=O)NC1CCN(Cc2ccccc2)CC1` (centres undefined), the Potency was inactive: > 76.9 µM.
For `Cn1c(N2CCOCC2)nc(-c2ccccc2)c1-c1ccccc1`, the Potency was active: 8.58 µM.
With `Cc1ccc(-n2c(N)c(C(=O)N3CCOCC3)sc2=S)cc1` the Potency was inactive: > 76.9 µM.
With `CCOc1ccc(-c2nnc(SCC(=O)N3CCOCC3)o2)cc1` the Potency was inactive: > 76.9 µM.
`Cc1cc(C)n(CCc2nc3c4ccccc4nc(SCc4ccc(C#N)cc4)n3n2)n1` was tested, and the Potency was inactive: > 76.9 µM.
In the case of `O=C(Nc1nnc(CCN2CCCCC2)s1)C1CCCCC1`, the Potency is reported as inactive: > 76.9 µM.
For `Nc1nnc(SCc2ccccc2Cl)s1`, the Potency was inactive: > 76.9 µM.
`CCc1ccccc1NC(=O)C(C#N)Cc1cccnc1` (centres undefined) was tested, and the Potency was inactive: > 76.9 µM.
For `Cc1ccc(N2CC(C(=O)Nc3cccnc3)CC2=O)cc1` (centres undefined), the Potency was inactive: > 76.9 µM.
`Cn1c(CCN2CCN(c3ccccc3)CC2)nc2cc(NC(=O)c3ccco3)ccc21` was tested, and the Potency was inactive: > 76.9 µM.
In the case of `O=C(CN1CCc2ccccc21)NC(=O)NCc1ccco1`, the Potency is reported as inactive: > 76.9 µM.
For `Cn1nnc(NC(=O)CSc2ccc(Cl)cc2)n1`, the Potency was inactive: > 76.9 µM.
With `CCOC(=O)c1nc(S(C)(=O)=O)ncc1N1CCOCC1` the Potency was inactive: > 76.9 µM.
For `CC(C)N(C)C1CCN(C(=O)Nc2ccc(Cl)cc2)CC1`, the Potency was inactive: > 76.9 µM.
`Cc1ccc(CS(=O)(=O)CCC(=O)NCC2CCCO2)cc1` (centres undefined) was tested, and the Potency was inactive: > 76.9 µM.
With `CCOC(=O)Cn1cnc2c(nnn2-c2ccc(OC)cc2)c1=O` the Potency was inactive: > 76.9 µM.
For `Cc1cc(C)n(-c2nc3ccccc3c(=O)n2OCC(=O)Nc2c(C)cccc2C)n1`, the Potency was inactive: > 76.9 µM.
With `Cc1nn(Cc2ccc(Cl)cc2)c(C)c1NC(=O)C1CC=CCC1C(=O)O` (centres undefined) the Potency was inactive: > 76.9 µM.
In the case of `Cc1c(N=C2NC(=O)C(CC(=O)Nc3ccccc3)S2)c(=O)n(-c2ccccc2)n1C` (centres undefined), the Potency is reported as inactive: > 76.9 µM.
In the case of `COc1cc2c(cc1OC)C(C(=O)N1CCCCC1)C(c1ccccc1F)N(C)C2=O` (centres undefined), the Potency is reported as inactive: > 76.9 µM.
With `COc1ccc(-c2noc(COc3ccc(C)c(C)c3)n2)cc1OC` the Potency was inactive: > 76.9 µM.
For `CCOC(=O)c1[nH]c(C)c(C(=O)Nc2cccc(Cl)c2C)c1C`, the Potency was inactive: > 76.9 µM.
With `CC(=O)Nc1ccc(OCC(O)CN2CCN(c3cc(Cl)ccc3C)CC2)cc1` (centres undefined) the Potency was inactive: > 76.9 µM.
With `COCC(C)NC(=O)COc1ccc(Cl)cc1Cl` (centres undefined) the Potency was inactive: > 76.9 µM.
For `COc1ccc(C2CC(=O)c3cnc(NC(=O)c4ccccc4)nc3C2)c(OC)c1` (centres undefined), the Potency was inactive: > 76.9 µM.
For `Cc1cc(C)nc(Nc2n[nH]c(COc3ccc(Cl)cc3)n2)n1`, the Potency was inactive: > 76.9 µM.
For `Cc1cccc(NC(=O)C2CCCN(c3nc(C)cc(C)n3)C2)c1` (centres undefined), the Potency was inactive: > 76.9 µM.
For `CC1Cc2ccccc2N1C(=O)Cn1cnc2ccccc2c1=O` (centres undefined), the Potency was inactive: > 76.9 µM.
For `CC(=O)N1CCCc2cc(S(=O)(=O)Nc3ccc4c(c3)OCO4)ccc21`, the Potency was inactive: > 76.9 µM.
For `Cc1ccc(S(=O)(=O)NCc2ccncc2)cc1`, the Potency was inactive: > 76.9 µM.
